# Among all 380,000 compounds or so, about 4,000 (1.1%) were called active. This list was built around the results that the source calls inconclusive (neither active nor inactive); the mix of calls is not that of the screen. The call rests on the fitted dose curve; in most records, active means well fitted activation curve with a large enough effect; inconclusive means small, poorly fitted or top-dose-only effect; inactive means no such curve, though single readings can be large or run the other way. Where the call is inconclusive, the potency comes from a doubtful curve fit.
# Test: qHTS Assay to Identify Small Molecule Activators of BRCA1 Expression; further: nearly all actives have a fitted effect of over 80% in size
# Details: MCF7-BRCA1-FFLuc reporter, luminescence, 48 h; activation: at 46.1 µM (top of the series), scaled: vehicle 0%, 10 µM genistein 100% unless noted
# Outline: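 Luminescence from a BRCA1-driven firefly luciferase in MCF7 cells was the read-out, taken 15 min after substrate addition following 48 h compound exposure at 37 °C. Data were normalized to a 10 microM genistein control and DMSO vehicle.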
# Potency means the concentration at half of the fitted maximal effect; tags describe the fitted curve by direction and shape.
SMILES,Potency,activation
O=C(c1ccc(F)cc1)N1CCN2C(=O)c3ccccc3C12c1ccc(Cl)cc1 (stereo not drawn),inactive,
O=C(COC(=O)c1ccccc1C(=O)c1ccccc1)NCc1ccc(F)cc1,inactive,
Cc1cccc(C)c1OCc1cc(C(=O)N2CCC(C3CCCCC3)C2)no1 (stereo not drawn),active: 12.6 µM,
c1cncc(-c2noc(-c3ccco3)n2)c1,"inconclusive: 14.1 µM [activator, partial curve, poor fit]",
CN(c1ccc(C(=O)NCCC2=CCCCC2)cc1)S(C)(=O)=O,"inconclusive: 2 µM [activator, partial curve, poor fit]",
COc1ccc(C(=O)c2sc(Nc3ccccc3F)nc2N)cc1,"inconclusive: 7.94 µM [activator, partial curve, poor fit]",
Cc1cc(Br)ccc1NC(=S)NC1CCCC1,"inconclusive: 8.91 µM [activator, partial curve, poor fit]",
O=C1c2[nH]nc(-c3ccccc3O)c2C(c2ccccc2)N1Cc1ccco1 (stereo not drawn),inactive,
O=C(Cc1ccc(Br)cc1)N1CCN(c2ccccc2O)CC1,"inconclusive: 11.2 µM [activator, partial curve, poor fit]",
Cc1ccc(C(=O)NCCc2ccccc2)cc1,,inconclusive: -63% [activator]
C=CC[n+]1c(-c2ccc(C)cc2)csc1Nc1c(C)n(C)n(-c2ccccc2)c1=O,inactive,
CCCCn1nc(NC(=O)CCC)c2cc3cc(OC)ccc3nc21,active: 12.6 µM,
O=C(O)c1ccc(N2C(=O)CC(N3C(=O)/C(=C/c4ccc(Cl)cc4)SC3=S)C2=O)cc1 (stereo not drawn),inactive,
CN(Cc1cn(-c2ccccc2)nc1-c1cc2ccccc2o1)C(=O)CCC(=O)O,"inconclusive: 25.1 µM [activator, single point]",
COc1ccccc1C(=O)Nc1nnc(C)s1,"inconclusive: 8.91 µM [activator, partial curve, poor fit]",
O=C(NC(=S)NCC1CCCO1)c1ccc(Cl)cc1 (stereo not drawn),"inconclusive: 10 µM [activator, partial curve, poor fit]",
NC(=O)C1=C[C@H](c2ccc3c(c2)OCO3)C[C@H](OCc2ccc(CO)cc2)O1,"inconclusive: 12.6 µM [activator, partial curve, poor fit]",
COC(=O)/C(C#N)=C1/C=Cc2ccccc2N1,"inconclusive: 20 µM [activator, partial curve, poor fit]",
CC(/C=N/NC(=O)CSc1ccccn1)=C\c1ccc(C(C)C)cc1,"inconclusive: 11.2 µM [activator, partial curve, poor fit]",
O=C(c1ccco1)N1CCN(Cc2c(Cl)cccc2Cl)CC1,"inconclusive: 31.6 µM [activator, single point]",
CC(C)(C)N/N=C1\CC(c2ccccc2)Oc2ccccc21 (stereo not drawn),inactive,
COC(=O)c1c(C)[nH]c(C(=O)/C=C/c2ccccc2Cl)c1C,"inconclusive: 2.51 µM [activator, full curve, poor fit]",
CCOc1ccc(N2C(=O)c3ccccc3NC2(C)CC)cc1 (stereo not drawn),active: 3.55 µM,
CCC(C(=O)O)n1nnc(-c2ccc(-c3ccc(OC)cc3)cc2)n1 (stereo not drawn),"inconclusive: 22.4 µM [activator, single point]",

SMILES,Potency,activation
Cc1cccc(-c2ncc(S(=O)(=O)C(C)(C)C)c(N)n2)c1,active: 5.01 µM,
CC1Cc2cc(-c3csc(N)n3)ccc2O1 (stereo not drawn),active: 3.16 µM,
COc1cc(/C=C2\C(=O)N(c3cccc(C(=O)O)c3)N=C2C)ccc1OCc1ccccc1,active: 7.08 µM,
Cc1cccc(N(CC(=O)NCCSCc2ccco2)S(=O)(=O)c2ccccc2)c1,inactive,
Cc1c(C(=O)Nc2cccnc2Cl)oc2ccccc12,"inconclusive: 6.31 µM [activator, partial curve, poor fit]",
Cc1ccc(CNC(=O)Nc2ccccc2)c(C)c1,"inconclusive: 2.51 µM [activator, full curve, poor fit]",
O=C(CSCC(=O)N1CCOCC1)Nc1nc(-c2ccccc2)cs1,inactive,
COc1ccc(-c2cc3nc(C)n(N)c(=O)c3s2)cc1,,inconclusive: -88.4% [activator]
CC(C)(C)n1cnc2cc(NCc3ccc(Br)cc3)ccc21,"inconclusive: 3.16 µM [activator, full curve, poor fit]",
CCN(CC)c1ccc(NC(=O)C2CCCN(S(=O)(=O)c3cnc[nH]3)C2)c(C)c1 (stereo not drawn),inactive,
CCOC(=O)c1c(C)[nH]c(C(=O)NNC(=O)c2ccccc2F)c1C,"inconclusive: 2 µM [activator, partial curve, poor fit]",
CCOC(=O)C(C)On1c(-c2ccc(Cl)cc2)nc2ccc([N+](=O)[O-])cc21 (stereo not drawn),"inconclusive: 2 µM [activator, partial curve, poor fit]",
COc1ccc(C(=O)Nc2ccccc2C(=O)Nc2cccnc2)cc1,"inconclusive: 11.2 µM [activator, partial curve, poor fit]",
N/C(=N\OC(=O)c1ccoc1)c1ccc(Br)cc1,"inconclusive: 0.631 µM [activator, full curve, poor fit]",
O=C(CSc1ncccn1)Nc1ccc2c(c1)CCC2,active: 8.91 µM,
C/C(=C\C(=O)c1ccccc1)Nc1ccc(O)cc1,active: 5.01 µM,
O=C(CC(Sc1ccc(Br)cc1)C(=O)O)c1ccc(F)cc1 (stereo not drawn),inactive,
c1ccc2c(c1)CCN(c1ncnc3c1[nH]c1ccccc13)C2,inactive,
N#Cc1c(N)nc2c(c1-c1ccccc1)CCC2,"inconclusive: 22.4 µM [activator, single point]",
CCC(C)NC(=O)c1cc(C)no1 (stereo not drawn),inactive,
Cc1ccccc1-c1nc(Cc2ccccc2)no1,active: 10 µM,
CC(=O)Nc1ccc(NC(=O)CSc2nnc(-c3ccccc3)n2Cc2ccc3c(c2)OCO3)cc1,inactive,
CCN1CCN(c2cc(C)c3cc(NC(=O)c4ccc(OC)c(OC)c4)ccc3n2)CC1,inactive,
CC(C)COc1ccc(-c2cc(C(=O)NN)[nH]n2)cc1,"inconclusive: 1.58 µM [activator, full curve, poor fit]",
